Laboratory results published in article PMC4336329 (PLoS ONE, 2015).
The campaign covered roughly 310,000 compounds. About 2,200 (0.71%) showed an effect of 50% or more. The effect is printed as a negative number. The list shows a part of the results.

Molecular target: human ether-à-go-go-related gene (hERG) potassium channel (human, UniProt Q12809)
Experiment: primary screen, population patch clamp on CHO cells stably expressing hERG

Sequence of human ether-à-go-go-related gene (hERG) potassium channel (Q12809 whole entry, looked up): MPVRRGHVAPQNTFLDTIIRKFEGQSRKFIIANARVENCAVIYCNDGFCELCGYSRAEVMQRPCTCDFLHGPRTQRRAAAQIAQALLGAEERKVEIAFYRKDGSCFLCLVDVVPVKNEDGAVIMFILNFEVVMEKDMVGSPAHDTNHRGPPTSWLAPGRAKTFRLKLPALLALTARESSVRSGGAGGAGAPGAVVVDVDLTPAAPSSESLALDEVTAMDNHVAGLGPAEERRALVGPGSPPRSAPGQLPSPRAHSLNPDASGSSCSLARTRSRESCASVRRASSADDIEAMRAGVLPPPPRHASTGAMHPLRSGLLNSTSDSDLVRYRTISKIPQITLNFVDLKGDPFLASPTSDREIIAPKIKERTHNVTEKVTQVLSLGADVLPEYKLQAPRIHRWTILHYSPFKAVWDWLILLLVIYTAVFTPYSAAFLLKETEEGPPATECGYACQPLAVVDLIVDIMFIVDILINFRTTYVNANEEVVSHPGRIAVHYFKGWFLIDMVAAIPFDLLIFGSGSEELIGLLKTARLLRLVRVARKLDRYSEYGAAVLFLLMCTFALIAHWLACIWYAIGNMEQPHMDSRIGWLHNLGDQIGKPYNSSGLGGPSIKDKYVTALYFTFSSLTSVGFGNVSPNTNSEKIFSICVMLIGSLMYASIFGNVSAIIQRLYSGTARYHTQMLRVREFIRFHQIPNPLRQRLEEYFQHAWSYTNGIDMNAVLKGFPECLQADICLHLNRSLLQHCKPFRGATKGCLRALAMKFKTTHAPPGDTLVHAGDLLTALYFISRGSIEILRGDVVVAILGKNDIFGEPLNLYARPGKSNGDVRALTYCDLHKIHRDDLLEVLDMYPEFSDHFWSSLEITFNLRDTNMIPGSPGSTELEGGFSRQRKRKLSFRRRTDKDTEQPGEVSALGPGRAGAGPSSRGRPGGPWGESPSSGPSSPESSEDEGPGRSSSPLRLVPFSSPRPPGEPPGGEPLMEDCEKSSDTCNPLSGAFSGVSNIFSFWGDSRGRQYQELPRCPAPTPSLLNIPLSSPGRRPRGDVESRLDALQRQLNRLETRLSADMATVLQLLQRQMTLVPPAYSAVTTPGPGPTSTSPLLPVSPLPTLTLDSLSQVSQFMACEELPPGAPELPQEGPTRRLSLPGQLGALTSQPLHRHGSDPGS

| Structure (SMILES) | hERG current change (%, negative = inhibition) at 1uM [%] |
| --- | --- |
| CC(NC(=O)C1CCN(C(=O)[C@@H]2Cc3ccccc3CN2)CC1)c1ccccc1 (stereo partly shown) | -2.44 |
| CC(/C=C/c1ccc2c(c1)OCO2)=N/NC(=O)CNc1ccc(C)cc1 | 15.7 |
| O=C(CSc1n[nH]c(Cc2ccccc2)n1)Nc1ccccc1Br | 3.87 |
| Cc1ccc(SCC(=O)N(Cc2nc(-c3ccccc3)no2)C(C)C)cc1 | 14 |
| NS(=O)(=O)c1cccc(NC(=O)CC(NC(=O)c2ccccc2Cl)c2ccccc2)c1 (stereo not shown) | 11.4 |
| CN(C)c1ccc(CN(C(=O)/C=C/c2ccco2)C2CCS(=O)(=O)C2)cc1 (stereo not shown) | 11.7 |
| COc1cc(-c2nc3ccccn3c2/N=C/c2cccc(F)c2)ccc1O | 8.25 |
| CSc1ccccc1NC(=O)COC(=O)c1ccc(O)cc1 | -1.15 |
| O=C(CN1CCc2ccccc2C1)c1cccs1.O=C(O)C(=O)O | 9.94 |
| CCn1ncc([N+](=O)[O-])c1C(=O)n1nc(C)cc1C | 4.35 |
| O=C(O)C1CC1C(=O)Nc1nc2c(Cl)cccc2s1 (stereo not shown) | 16.2 |
| O=C(C1CCCCN1S(=O)(=O)c1ccc(F)cc1)N1CCN(c2ccccc2F)CC1 (stereo not shown) | 4.51 |
| Cc1ccc2c(c1)CC1(CN2C)C(=O)NC(=O)N(c2ccccc2C)C1=O (stereo not shown) | 5.48 |
| O=C(Cc1cccs1)N1CCC2(CC1)OCCO2 | -1.87 |
| CCc1nnc(NC(=O)c2cccc(S(=O)(=O)N3CCN(c4ccccc4)CC3)c2)s1 | 13.1 |
| CCC(=O)N1CCc2cc(S(=O)(=O)NC(Cc3ccccc3)C(=O)NC3CCCCC3C)ccc21 (stereo not shown) | 0.125 |
| CC(NC(=O)COC(=O)CSc1ccc(F)cc1)c1ccc(F)cc1 (stereo not shown) | 11.6 |
| Cc1ccc(NC(=O)CNC(=O)c2ccc3c(c2)OCO3)nc1 | 7.61 |
| O=S(=O)(NCCc1ccncc1)c1ccccc1 | 9.02 |
| CC1CCN(C(=O)C(=O)Nc2sc3c(c2C(N)=O)CC(C)(C)OC3)CC1 | 13.4 |

| Structure (SMILES) | hERG current change (%, negative = inhibition) at 1uM [%] |
| --- | --- |
| CCc1nnc(NC(=O)c2ccc(S(=O)(=O)N3CCc4ccccc4C3)cc2)s1 | 10.8 |
| Cc1cc(-c2n[nH]c(=S)n2/N=C/c2cccc(O)c2)n[nH]1 | 19.8 |
| CCC(=O)Nc1ccc(CCC(=O)N2CCCC2)cc1 | 15.5 |
| CCOC(=O)N=Nc1c(O)n(Cc2ccccc2)c2ccccc12 | 12.8 |
| CCC(=O)Nc1ccc(Br)c(Cl)c1 | 13.7 |
| COc1ccccc1C(=O)NCCC(=O)NCC(c1ccc(F)cc1)N1CCOCC1 (stereo not shown) | 6.98 |
| CCOC(=O)c1c(NC(=O)CN2C(=O)c3ccccc3C2=O)sc(Cc2ccc3c(c2)OCO3)c1C | 5.18 |
| COc1ccc(C(=O)c2coc3c2C(=O)C(=O)c2ccccc2-3)cc1 | 11.1 |
| CC(C)c1ccc(C2C3CSCC=C3C(C#N)=C(N)C2(C#N)C#N)cc1 (stereo not shown) | 2.72 |
| CC(C)C(=O)NNc1ccc(C(F)(F)F)cn1 | 20.8 |
| CC1(c2ccccc2)CC(C)(C)n2c(O)c(C3=NC(=S)NC3=O)c3cccc1c32 (stereo not shown) | 7.91 |
| CCN(CC)C(=O)c1ccccc1NS(=O)(=O)c1cccs1 | -1.45 |
| Cc1ccc(S(=O)(=O)Nc2ccc3oc(=O)sc3c2)c(C)c1 | 7.97 |
| Cc1ccccc1CC(=O)Nc1ccc2c(c1)CCC2 | 16.2 |
| O=C(O)CCNc1ccc(NCCC(=O)O)c2c1C(=O)c1ccccc1C2=O | 12.1 |
| Nc1cc(OC(=O)c2cccs2)nn1S(=O)(=O)c1ccc(F)cc1 | -2.66 |
| Cc1ccc2nc(N(CCCN(C)C)C(=O)c3ccc4c(c3)CCCC4)sc2c1.Cl | 8.94 |
| COC(=O)c1ccccc1NC(=O)C(=O)NCC1CCCO1 (stereo not shown) | 13.6 |
| COc1ccc(C(=O)NC2CCSc3ccccc32)cc1S(=O)(=O)N1CCOCC1 (stereo not shown) | 5.37 |
| CCOc1ccc(S(=O)(=O)NCC2CCCO2)cc1NC(=O)c1ccccc1F (stereo not shown) | 15.1 |

| Structure (SMILES) | hERG current change (%, negative = inhibition) at 1uM [%] |
| --- | --- |
| O=C(NCC1CC1)c1onc(CSc2ccc(F)c(F)c2)c1C(=O)NCC1CC1 | 10.6 |
| CNC(=O)NC(=O)COC(=O)CCCSc1nc2ccccc2s1 | 14.6 |
| CC(=O)OC(C)CS(=O)(=O)c1ccccc1 (stereo not shown) | 15.2 |
| CC1CCCC(NC(=O)COC(=O)c2ccc3ccccc3n2)C1C (stereo not shown) | -0.662 |
| CCOC(=O)N1CCC(N(CCN(C)C)C(=S)Nc2cccc(Cl)c2C)CC1 | 14.3 |
| COc1ccccc1N/C=C(\C#N)c1nc2ccccc2[nH]1 | -7.19 |
| O=C1N=C(N2CCOCC2)S/C1=C\c1cccnc1 | 10 |
| COc1ccc(OC)c(NC(=O)CSc2nc3scc(C)c3c(=O)[nH]2)c1 | 17.4 |
| Cn1ccnc1SC(C(=O)O)c1ccccc1 (stereo not shown) | 14.9 |
| Cc1ccc(-c2ccc(=O)n(CC(=O)NCCCN3CCCCC3C)n2)cc1 (stereo not shown) | -4.56 |
| CN(C)CCCC1(O)c2ccccc2C=Cc2ccccc21 | 8.67 |
| COc1ccc(C2NS(=O)(=O)OCC2C)cc1 (stereo not shown) | 13.4 |
| O=C1NC2(CCC3(CC2)OCCO3)NN1c1ccc(Cl)cc1 | 2.21 |
| Cc1cccc(NC(=O)CN2CCCN(S(=O)(=O)c3ccc(Br)s3)CC2)c1 | 9.64 |
| Cc1ccc(NC(=O)COC(=O)CCc2nc3ccccc3n2-c2ccccc2)c(C)c1 | 11.2 |
| C/C(=N\NC(=O)c1nnn(-c2nonc2N)c1-c1ccccc1)c1ccco1 | 16.3 |
| Cc1cccc(OCC(=O)NCCNC(=O)c2cccnc2)c1 | 16.4 |
| Cc1cc(C)cc(N(CC(=O)NCc2ccc(F)cc2)C(=O)c2snc(C(N)=O)c2N)c1 | 13.8 |
